Measurements reported in paper PMC6919601, “Identification of Plasmodium dipeptidyl aminopeptidase allosteric inhibitors by high throughput screening” (PLoS ONE, 2019).
Out of some 110,000 compounds screened, about 230 (0.21%) showed an effect of 50% or more. The list shows a part of the results.

molecular target: DPAP1 (Plasmodium falciparum, UniProt Q8IIJ9); assay: primary screen, percent inhibition; read by cleavage of a fluorogenic dipeptide substrate; higher = more effect of the substance; set-up: species or system P. falciparum D10 trophozoite lysates; single well
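Also: 30 min substrate incubation versus DMSO and 10 µM JCP410 controls.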

Sequence of DPAP1 (Q8IIJ9 whole entry, looked up): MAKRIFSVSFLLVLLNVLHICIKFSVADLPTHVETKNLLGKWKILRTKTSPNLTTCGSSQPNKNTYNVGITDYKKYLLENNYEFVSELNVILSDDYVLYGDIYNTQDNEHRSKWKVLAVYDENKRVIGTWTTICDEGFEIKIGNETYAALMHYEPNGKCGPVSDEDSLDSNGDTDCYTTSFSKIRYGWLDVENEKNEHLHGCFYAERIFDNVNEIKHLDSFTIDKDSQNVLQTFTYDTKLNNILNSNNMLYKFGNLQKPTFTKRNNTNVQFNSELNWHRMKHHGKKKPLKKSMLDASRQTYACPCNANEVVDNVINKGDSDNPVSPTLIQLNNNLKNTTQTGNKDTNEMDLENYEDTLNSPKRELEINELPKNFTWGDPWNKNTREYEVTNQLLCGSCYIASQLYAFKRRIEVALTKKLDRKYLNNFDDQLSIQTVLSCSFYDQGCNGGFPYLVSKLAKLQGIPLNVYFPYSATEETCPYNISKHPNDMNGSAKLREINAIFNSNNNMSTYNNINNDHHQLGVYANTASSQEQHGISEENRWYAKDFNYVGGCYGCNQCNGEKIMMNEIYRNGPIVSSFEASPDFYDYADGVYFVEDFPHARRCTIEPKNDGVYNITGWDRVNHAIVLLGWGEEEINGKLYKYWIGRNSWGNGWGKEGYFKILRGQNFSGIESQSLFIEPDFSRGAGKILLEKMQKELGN

First: Cc1cc(C)c2c(=O)n(CC(=O)N3CCC(Cc4ccccc4)CC3)sc2n1
Second: c1ccc(Cn2c(C3CCCO3)nc3ccccc32)cc1 (stereo not shown)
The “% Inhibition @ 10 uM” value of the first is higher: 19% for the first, -1.22% for the second.

Going from `N#CCNC(=O)[C@H](CC1CCCCC1)NC(=O)c1ccc(Br)cc1` to `CCNC(=O)c1c(NC(=O)c2cc(=O)c3ccccc3o2)sc2c1CCCC2`, the “% Inhibition @ 10 uM” value rises from -1.83% to -1.47%.

First: O=C(O)c1c(CNCc2ccccc2Cl)c2ccccc2n1Cc1ccccc1
Second: COc1cccc(CNc2ccc(C(=O)O)cc2)c1OCc1ccccc1
The “% Inhibition @ 10 uM” value of the first is higher: 5.09% for the first, 3.49% for the second.

Compared with `COc1cc(NC(=O)c2sc3nc4c(cc3c2N)CCCC4)cc(OC)c1`, `COc1cc(OC)cc(C(=O)Nc2cc(-c3nc4ncccc4o3)ccc2Cl)c1` is higher in “% Inhibition @ 10 uM” value: 1.17% for the first, 1.64% for the second.

Going from `COc1ccccc1CNC(=O)[C@H](CCS(C)(=O)=O)N1Cc2ccccc2C1=O` to `CCc1n(CC(O)COc2ccccc2OC)c2ccccc2[n+]1CC` (stereo not shown), the “% Inhibition @ 10 uM” value falls from 1.26% to -3.41%.

Compared with `CCOc1cc(CNCc2c(C(=O)O)n(CC)c3cc(C)ccc23)cc(OCC)c1OCC`, `Cc1ccc(CCS(=O)(=O)c2ccc(C(C)(C)C)cc2)cn1` is higher in “% Inhibition @ 10 uM” value: -7.28% for the first, 1.9% for the second.

First: CN(/C=C/C(=O)c1ccccc1)S(=O)(=O)c1ccccc1
Second: CN(Cc1ccccc1)C(=O)CN(Cc1ccccc1)S(C)(=O)=O
The “% Inhibition @ 10 uM” value of the first is lower: -1.91% for the first, -0.185% for the second.

First: CCCN1CCN(C(=O)CCC(=O)N2Cc3ccccc3Oc3ncccc32)CC1
Second: Cn1c(SCc2ccc(F)cc2)nc2ccc(C(=O)N3CCN(C(=O)c4ccco4)CC3)cc21
The “% Inhibition @ 10 uM” value of the first is higher: 3.53% for the first, -1.38% for the second.

First: C=CCNC(=O)COc1ccc(Cl)cc1Cl
Second: Cc1ccccc1CNCCC1=CCCCC1
The “% Inhibition @ 10 uM” value of the first is lower: -5.46% for the first, 3.62% for the second.

Going from `CC1CCN(CC(O)c2ccc3cc[nH]c3c2)CC1` (stereo not shown) to `O=C(Nc1ccccc1O)c1cccc(S(=O)(=O)N2CCOCC2)c1`, the “% Inhibition @ 10 uM” value falls from 2.34% to -8.36%.

Compared with `CC(=O)Nc1nn2c(-c3ccco3)nnc2s1`, `CN1C=CC(=Cc2sc3ccccc3[n+]2C)C=C1` is lower in “% Inhibition @ 10 uM” value: 7.67% for the first, -5% for the second.

First: Cc1ccc(-[n+]2c(=O)c(-c3ccccc3)c(O)n3nc(C)ccc32)cc1
Second: CCNS(=O)(=O)c1ccc(NC(=O)Nc2cccc3ccccc23)cc1
The “% Inhibition @ 10 uM” value of the first is higher: 9.48% for the first, -3.87% for the second.

Compared with `COc1ccc(C2=N/C(=C/c3ccccc3C(F)(F)F)C(=O)O2)cc1Br`, `O=C(N1CC=C(c2ccccc2)CC1)C1(S(=O)(=O)c2ccc(Cl)cc2)CC1` is higher in “% Inhibition @ 10 uM” value: -1.65% for the first, -0.0508% for the second.

Compared with `CCC(C)NC(=O)c1onc(C)c1Cl` (stereo not shown), `COC(=O)c1c(NC(=O)C2=C(C)N=C3CCCC(O)=C3C2c2ccccc2F)sc2c1CCCC2` (stereo not shown) is higher in “% Inhibition @ 10 uM” value: -5.25% for the first, 7.68% for the second.
